From article PMC12820563
The list shows a part of the results. The list includes weakly bound sequences.

molecular target: T1, MBP-FoxP3dN (UniProt Q99JB6); assay: PD-seq (MBP pull-down with sequencing); details: 20 mM Tris-HCl pH 7.5, 100 mM NaCl, 1.5 mM MgCl2, 0.4 uM protein, 0.1 uM dsDNA library, 30 min, room temperature, amylose pull-down; high values mean tight binding; double strand, one strand shown
T1 sequence: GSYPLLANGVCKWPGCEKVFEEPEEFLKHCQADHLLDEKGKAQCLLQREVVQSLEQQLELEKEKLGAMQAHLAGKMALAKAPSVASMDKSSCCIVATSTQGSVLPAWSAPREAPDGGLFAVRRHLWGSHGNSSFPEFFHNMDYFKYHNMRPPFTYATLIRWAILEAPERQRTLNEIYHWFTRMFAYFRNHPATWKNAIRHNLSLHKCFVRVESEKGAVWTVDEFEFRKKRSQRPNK

Row | Sequence | binding signal (RPM ratio (pull-down/input))
1 | GATGATTGTTCTCCCAGCTGATGAATTGCATGGATCGAGTAAACAAATTTTCCTAATCTTTCTGTTCAAGCGCCATCTAC | 1.1
2 | GATGATTGTTCTCCCAGCTGATGAATTTGACTCATCGAGTAAACAAATTTTCCTAATCTTTCTGTTCAAGCGCCATCTAC | 0.606
3 | GATGATTGTTCTCCCAGCTGATGAATTTAAATAGTCGAGTAAACAAATTTTCCTAATCTTTCTGTTCAAGCGCCATCTAC | 0.402
4 | GATGATTGTTCTCCCAGCTGATGAATTAAACAGATCGAGTAAACAAATTTTCCTAATCTTTCTGTTCAAGCGCCATCTAC | 0.408
5 | GATGATTGTTCTCCCAGCTGATGAATTAGGCATATCGAGTAAACAAATTTTCCTAATCTTTCTGTTCAAGCGCCATCTAC | 2.17
6 | GATGATTGTTCTCCCAGCTGATGAATTGCTAACCTCGAGTAAACAAATTTTCCTAATCTTTCTGTTCAAGCGCCATCTAC | 0.572
7 | GATGATTGTTCTCCCAGCTGATGAATTGGGTAGTTCGAGTAAACAAATTTTCCTAATCTTTCTGTTCAAGCGCCATCTAC | 0.703
8 | GATGATTGTTCTCCCAGCTGATGAATTCTACCACTCGAGTAAACAAATTTTCCTAATCTTTCTGTTCAAGCGCCATCTAC | 0.392
9 | GATGATTGTTCTCCCAGCTGATGAATTAAGCTGATCGAGTAAACAAATTTTCCTAATCTTTCTGTTCAAGCGCCATCTAC | 0.512
10 | GATGATTGTTCTCCCAGCTGATGAATTAGGGATATCGAGTAAACAAATTTTCCTAATCTTTCTGTTCAAGCGCCATCTAC | 0.46
11 | GATGATTGTTCTCCCAGCTGATGAATTACTACGTTCGAGTAAACAAATTTTCCTAATCTTTCTGTTCAAGCGCCATCTAC | 0.412
12 | GATGATTGTTCTCCCAGCTGATGAATTTGAGACCTCGAGTAAACAAATTTTCCTAATCTTTCTGTTCAAGCGCCATCTAC | 0.355
13 | GATGATTGTTCTCCCAGCTGATGAATTGCAACGATCGAGTAAACAAATTTTCCTAATCTTTCTGTTCAAGCGCCATCTAC | 1.15
14 | GATGATTGTTCTCCCAGCTGATGAATTCTGTAGGTCGAGTAAACAAATTTTCCTAATCTTTCTGTTCAAGCGCCATCTAC | 0.948
15 | GATGATTGTTCTCCCAGCTGATGAATTCGTGAAGTCGAGTAAACAAATTTTCCTAATCTTTCTGTTCAAGCGCCATCTAC | 0.253
16 | GATGATTGTTCTCCCAGCTGATGAATTCAATGACTCGAGTAAACAAATTTTCCTAATCTTTCTGTTCAAGCGCCATCTAC | 0.766
17 | GATGATTGTTCTCCCAGCTGATGAATTCACCAGCTCGAGTAAACAAATTTTCCTAATCTTTCTGTTCAAGCGCCATCTAC | 0.211
18 | GATGATTGTTCTCCCAGCTGATGAATTTAGCAACTCGAGTAAACAAATTTTCCTAATCTTTCTGTTCAAGCGCCATCTAC | 5.48
19 | GATGATTGTTCTCCCAGCTGATGAATTCGTGATCTCGAGTAAACAAATTTTCCTAATCTTTCTGTTCAAGCGCCATCTAC | 0.753
20 | GATGATTGTTCTCCCAGCTGATGAATTATAGGTTTCGAGTAAACAAATTTTCCTAATCTTTCTGTTCAAGCGCCATCTAC | 0.547
21 | GATGATTGTTCTCCCAGCTGATGAATTTGACTAATCGAGTAAACAAATTTTCCTAATCTTTCTGTTCAAGCGCCATCTAC | 0.313

Row | Sequence | binding signal (RPM ratio (pull-down/input))
22 | GATGATTGTTCTCCCAGCTGATGAATTTTTACGGTCGAGTAAACAAATTTTCCTAATCTTTCTGTTCAAGCGCCATCTAC | 0.208
23 | GATGATTGTTCTCCCAGCTGATGAATTGAGACCTTCGAGTAAACAAATTTTCCTAATCTTTCTGTTCAAGCGCCATCTAC | 0.343
24 | GATGATTGTTCTCCCAGCTGATGAATTAATAGACTCGAGTAAACAAATTTTCCTAATCTTTCTGTTCAAGCGCCATCTAC | 0.38
25 | GATGATTGTTCTCCCAGCTGATGAATTCACGGAATCGAGTAAACAAATTTTCCTAATCTTTCTGTTCAAGCGCCATCTAC | 0.2
26 | GATGATTGTTCTCCCAGCTGATGAATTGCGAGTCTCGAGTAAACAAATTTTCCTAATCTTTCTGTTCAAGCGCCATCTAC | 1.52
27 | GATGATTGTTCTCCCAGCTGATGAATTGCACAGATCGAGTAAACAAATTTTCCTAATCTTTCTGTTCAAGCGCCATCTAC | 0.519
28 | GATGATTGTTCTCCCAGCTGATGAATTTCCAGCTTCGAGTAAACAAATTTTCCTAATCTTTCTGTTCAAGCGCCATCTAC | 0.255
29 | GATGATTGTTCTCCCAGCTGATGAATTTCGGGTATCGAGTAAACAAATTTTCCTAATCTTTCTGTTCAAGCGCCATCTAC | 0.571
30 | GATGATTGTTCTCCCAGCTGATGAATTACCATCTTCGAGTAAACAAATTTTCCTAATCTTTCTGTTCAAGCGCCATCTAC | 0.5
31 | GATGATTGTTCTCCCAGCTGATGAATTTGAAGAGTCGAGTAAACAAATTTTCCTAATCTTTCTGTTCAAGCGCCATCTAC | 0.213
32 | GATGATTGTTCTCCCAGCTGATGAATTGTCAACGTCGAGTAAACAAATTTTCCTAATCTTTCTGTTCAAGCGCCATCTAC | 0.651
33 | GATGATTGTTCTCCCAGCTGATGAATTCAGTTATTCGAGTAAACAAATTTTCCTAATCTTTCTGTTCAAGCGCCATCTAC | 2.8
34 | GATGATTGTTCTCCCAGCTGATGAATTTCGACGGTCGAGTAAACAAATTTTCCTAATCTTTCTGTTCAAGCGCCATCTAC | 0.251
35 | GATGATTGTTCTCCCAGCTGATGAATTTCGCGAGTCGAGTAAACAAATTTTCCTAATCTTTCTGTTCAAGCGCCATCTAC | 0.675
36 | GATGATTGTTCTCCCAGCTGATGAATTTGGTGGCTCGAGTAAACAAATTTTCCTAATCTTTCTGTTCAAGCGCCATCTAC | 1.09
37 | GATGATTGTTCTCCCAGCTGATGAATTGTATGAGTCGAGTAAACAAATTTTCCTAATCTTTCTGTTCAAGCGCCATCTAC | 1.36
38 | GATGATTGTTCTCCCAGCTGATGAATTTTGTGAGTCGAGTAAACAAATTTTCCTAATCTTTCTGTTCAAGCGCCATCTAC | 4.18
39 | GATGATTGTTCTCCCAGCTGATGAATTGTGAAACTCGAGTAAACAAATTTTCCTAATCTTTCTGTTCAAGCGCCATCTAC | 1.2
40 | GATGATTGTTCTCCCAGCTGATGAATTGTCTGACTCGAGTAAACAAATTTTCCTAATCTTTCTGTTCAAGCGCCATCTAC | 0.285
41 | GATGATTGTTCTCCCAGCTGATGAATTCTGGGTTTCGAGTAAACAAATTTTCCTAATCTTTCTGTTCAAGCGCCATCTAC | 0.611
42 | GATGATTGTTCTCCCAGCTGATGAATTAAGACACTCGAGTAAACAAATTTTCCTAATCTTTCTGTTCAAGCGCCATCTAC | 1.36

Row | Sequence | binding signal (RPM ratio (pull-down/input))
43 | GATGATTGTTCTCCCAGCTGATGAATTGAAGGGCTCGAGTAAACAAATTTTCCTAATCTTTCTGTTCAAGCGCCATCTAC | 0.213
44 | GATGATTGTTCTCCCAGCTGATGAATTAGCAAGTTCGAGTAAACAAATTTTCCTAATCTTTCTGTTCAAGCGCCATCTAC | 0.415
45 | GATGATTGTTCTCCCAGCTGATGAATTAAAGGCGTCGAGTAAACAAATTTTCCTAATCTTTCTGTTCAAGCGCCATCTAC | 0.645
46 | GATGATTGTTCTCCCAGCTGATGAATTAATGTAGTCGAGTAAACAAATTTTCCTAATCTTTCTGTTCAAGCGCCATCTAC | 0.915
47 | GATGATTGTTCTCCCAGCTGATGAATTTGGGCTGTCGAGTAAACAAATTTTCCTAATCTTTCTGTTCAAGCGCCATCTAC | 0.46
48 | GATGATTGTTCTCCCAGCTGATGAATTCGTGGCTTCGAGTAAACAAATTTTCCTAATCTTTCTGTTCAAGCGCCATCTAC | 0.704
49 | GATGATTGTTCTCCCAGCTGATGAATTCTATAGTTCGAGTAAACAAATTTTCCTAATCTTTCTGTTCAAGCGCCATCTAC | 0.74
50 | GATGATTGTTCTCCCAGCTGATGAATTCCTATCCTCGAGTAAACAAATTTTCCTAATCTTTCTGTTCAAGCGCCATCTAC | 0.271
51 | GATGATTGTTCTCCCAGCTGATGAATTATGGTGTTCGAGTAAACAAATTTTCCTAATCTTTCTGTTCAAGCGCCATCTAC | 1.57
52 | GATGATTGTTCTCCCAGCTGATGAATTATCATCATCGAGTAAACAAATTTTCCTAATCTTTCTGTTCAAGCGCCATCTAC | 0.654
53 | GATGATTGTTCTCCCAGCTGATGAATTACGATCTTCGAGTAAACAAATTTTCCTAATCTTTCTGTTCAAGCGCCATCTAC | 0.423
54 | GATGATTGTTCTCCCAGCTGATGAATTGACTTGCTCGAGTAAACAAATTTTCCTAATCTTTCTGTTCAAGCGCCATCTAC | 0.466
55 | GATGATTGTTCTCCCAGCTGATGAATTGGCGTGCTCGAGTAAACAAATTTTCCTAATCTTTCTGTTCAAGCGCCATCTAC | 1.07
56 | GATGATTGTTCTCCCAGCTGATGAATTGTTATCATCGAGTAAACAAATTTTCCTAATCTTTCTGTTCAAGCGCCATCTAC | 3.17
57 | GATGATTGTTCTCCCAGCTGATGAATTGTGCTTTTCGAGTAAACAAATTTTCCTAATCTTTCTGTTCAAGCGCCATCTAC | 4.22
58 | GATGATTGTTCTCCCAGCTGATGAATTTTGTTGATCGAGTAAACAAATTTTCCTAATCTTTCTGTTCAAGCGCCATCTAC | 7.34
59 | GATGATTGTTCTCCCAGCTGATGAATTTAATCAATCGAGTAAACAAATTTTCCTAATCTTTCTGTTCAAGCGCCATCTAC | 0.269
60 | GATGATTGTTCTCCCAGCTGATGAATTAGCATCCTCGAGTAAACAAATTTTCCTAATCTTTCTGTTCAAGCGCCATCTAC | 5.16
61 | GATGATTGTTCTCCCAGCTGATGAATTGATACGCTCGAGTAAACAAATTTTCCTAATCTTTCTGTTCAAGCGCCATCTAC | 0.861
62 | GATGATTGTTCTCCCAGCTGATGAATTACAAGAGTCGAGTAAACAAATTTTCCTAATCTTTCTGTTCAAGCGCCATCTAC | 0.34
63 | GATGATTGTTCTCCCAGCTGATGAATTCCGACCTTCGAGTAAACAAATTTTCCTAATCTTTCTGTTCAAGCGCCATCTAC | 0.331
